# About 6,000 (1.7%) of roughly 360,000 compounds were called active. This list was built around the results that the source calls inconclusive (neither active nor inactive); the mix of calls is not that of the screen. Calls follow the shape of the dose curve; as a rule, active = well fitted cell-killing curve with a large enough effect; inconclusive = small, poorly fitted or top-dose-only effect, or effect the other way; inactive = flat fitted curve, though single readings scatter. No potency is given beside an inconclusive call; the fits are too rough.
# Assay: qHTS for induction of synthetic lethality in tumor cells producing 2HG: qHTS for the HT-1080-NT fibrosarcoma cell line;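 also: NT is the 2HG producing partner of a matched IDH1 knockdown line; nearly all actives have a fitted effect of over 55% in size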;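 as to activity, negative = less viability: 0% = DMSO-treated cells and -100% = media-only wells without cells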
# Details: HT-1080-NT fibrosarcoma viability, CellTiter-Glo ATP luminescence, 48 h; activity, negative = less viability: at 46.1 µM (top of the series) unless noted
# Outline: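 Fibrosarcoma NT cells, 750 per well in 5% FBS RPMI, were exposed to compound for 48 hours. Viability: CellTiter-Glo luminescence.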
# Potency is read from the fitted curve at half-maximal effect; tags tell the direction and shape of the fitted curve.
Compound,Potency,"activity, negative = less viability"
C[C@@H]1CN([C@H](C)CO)C(=O)c2cc(NC(=O)Cc3ccccc3)ccc2O[C@H]1CN(C)Cc1ccc(Oc2ccccc2)cc1,"inconclusive [cytotoxic, single point]",
CCC(Sc1nc2n[nH]c(C)c2c(=N)n1-c1cccc(Cl)c1C)C(=O)N(CC)CC (centres undefined),,inactive: -6.91%
Cc1ccc(NC(=S)N2CCC(c3nc4ccccc4s3)CC2)cc1C,"inconclusive [cytotoxic, single point]",
COc1ccnc2c1c(=O)n(Cc1ccc(Cl)cc1)c(=O)n2C,"inconclusive [cytotoxic, single point]",
O=C(NCC(c1cccs1)N1CCOCC1)c1ccc(Cl)nc1 (centres undefined),"inconclusive [cytotoxic, single point]",
CCN1CCN(C(=O)NC2CC(=O)N(c3ccc(OC)cc3)C2)CC1 (centres undefined),"inconclusive [rising, single point]",
O=C(CCl)NCCN1C(=O)S/C(=C\c2cccnc2)C1=O,"inconclusive [cytotoxic, partial curve]",
Cc1ccc(S(=O)(=O)Nc2ccccc2N2CCCCC2)cc1,"inconclusive [cytotoxic, single point]",
Fc1ccc(N2CCN(Cc3ccccn3)CC2)cc1,"inconclusive [rising, single point]",
CCCCC(=O)NC(c1ccc(C(C)C)cc1)c1ccc2cccnc2c1O (centres undefined),"inconclusive [cytotoxic, single point]",
COc1ccc(NC(=O)C(=O)NCC(c2ccco2)N2CCc3ccccc3C2)cc1OC (centres undefined),,inactive: -1.53%
N#CCc1ccc(-c2cccc3nccn23)cc1,,inconclusive: 21.9%
Cc1ccc(C(=O)OCC(=O)Nc2sccc2C(N)=O)cc1NC(=O)c1ccco1,,inactive: -0.979%
C=CCC[C@H](Cc1ccc(F)cc1)C(=O)OC[C@@H](NC(=O)[C@@H](CC=C)CC(=O)N[C@@H](CO)Cc1ccccc1)C(C)(C)C,"inconclusive [cytotoxic, partial curve]",
CCCCn1c(=N)n(CC(O)COc2ccc(C)cc2)c2ccccc21 (centres undefined),"inconclusive [cytotoxic, single point]",
Clc1ccc(-c2nc(NCCCN3CCOCC3)c3ccccc3n2)cc1,active: 23.1 µM,
COc1ccc(C(=O)Nn2c(CCC(=O)O)ccc2-c2ccc(C)cc2)cc1OC,,inactive: 2.18%
Cc1ccc(C(C[N+](=O)[O-])c2c(N)n(C)c(=O)n(C)c2=O)cc1 (centres undefined),"inconclusive [cytotoxic, single point]",
O=C(Cc1ccc(Br)cc1)Nc1ncc([N+](=O)[O-])s1,"inconclusive [cytotoxic, single point]",
COc1ccc(S(=O)(=O)N2CCC[C@H]2C(=O)N2CCC[C@H]2C(=O)NCc2ccc(F)cc2F)cc1C,"inconclusive [cytotoxic, single point]",
COc1cc(CNc2ncnc3c2ncn3[C@H]2CN(Cc3cccc(C(F)(F)F)c3)C[C@@H](CO)O2)cc(OC)c1OC,"inconclusive [cytotoxic, single point]",
COc1ccc(/C=N/NC(=O)c2cccnc2)cc1COc1ccc(NC(C)=O)cc1,"inconclusive [cytotoxic, partial curve, poor fit]",
C=CCn1c(Cc2ccccc2)nc2c(cnn2-c2ccccc2)c1=O,"inconclusive [cytotoxic, partial curve]",

Compound,Potency,"activity, negative = less viability"
NC(=O)c1cc(-c2ccccc2)sc1NC(=O)CN1CCCCC1,"inconclusive [cytotoxic, single point]",
COCc1cccc(-c2csc(C(O)c3ccc(F)cc3)n2)c1 (centres undefined),,inactive: -11.2%
Cc1ccc2c(c1)sc1nncn12,,inactive: -2.46%
COc1ccc(C)cc1N(C(=O)c1snc(C(N)=O)c1N)C(C(=O)NC1CCCCC1)c1ccc(C)o1 (centres undefined),"inconclusive [cytotoxic, partial curve, poor fit]",
COc1cccc(-c2cc(C(F)(F)F)nc(N3CCN(c4ccccc4)CC3)n2)c1,"inconclusive [rising, single point]",
COc1cccc(CC2(CO)CCCN(Cc3cc(F)ccc3-n3cccn3)C2)c1 (centres undefined),"inconclusive [cytotoxic, partial curve]",
NC(Cc1ccc(F)cc1)c1csc(Nc2ccc(S(N)(=O)=O)cc2)n1 (centres undefined),"inconclusive [cytotoxic, single point]",
CC(C)CCC(CCNCc1ccccn1)c1ccc(Cl)cc1 (centres undefined),"inconclusive [cytotoxic, single point]",
OC(CCCN1CCCCC1)(c1ccccc1)c1ccc(C(F)(F)F)cc1 (centres undefined),"inconclusive [cytotoxic, partial curve]",
CN(C)C(CNC(=O)c1cccc(S(=O)(=O)N2CCN(c3ccc(F)cc3)CC2)c1)c1ccccc1 (centres undefined),"inconclusive [cytotoxic, single point]",
CCC(=O)N1CCC1(C)C(=O)Nc1cnc2ccccc2c1 (centres undefined),"inconclusive [rising, single point]",
CC(C)(C)OC(=O)C[C@H]1C/C=C\C[C@H](CC(=O)NCCO)C(=O)N[C@@H](Cc2ccccc2)COC1=O,,inactive: 19.3%
COc1ccc2[nH]c(=O)c(CN(CCc3ccccc3)Cc3nnnn3CC3CCCO3)cc2c1 (centres undefined),"inconclusive [cytotoxic, single point]",
COc1cc(N)c(Cl)cc1C(=O)N[C@H]1CCN(CCCOc2ccc(F)cc2)C[C@H]1OC,"inconclusive [cytotoxic, single point]",
COc1ccc2nc(Nc3ccccc3OC)sc2c1,"inconclusive [cytotoxic, single point]",
Cc1ccccc1C(=O)NNC(=O)CSc1nnc(-c2ccncc2)n1-c1ccccc1,,inactive: 11.5%
OC(c1ccc(Cl)c(Cl)c1)c1ncc(-c2ccc(Cl)cc2)[nH]1 (centres undefined),"inconclusive [cytotoxic, single point]",
CCNc1nnc(SCC(=O)N2c3ccccc3NC(=O)CC2C)s1 (centres undefined),,inactive: -3.35%
Cc1ccccc1OCC(=O)NC(=S)Nc1ccc2c3c(cccc13)CC2,,inactive: 8.51%
CCCS(=O)(=O)NC(=O)C1(C)CCCN(C(=O)c2ccc(F)cc2Cl)C1 (centres undefined),"inconclusive [rising, partial curve]",
CCOC(=O)C1=C[C@@H](C(C)(C)C)N(S(=O)(=O)c2ccc(C)cc2)[C@H]1c1ccc(Cl)c(Cl)c1,active: 14.6 µM,
CC(=O)Nc1ccc(NC(=O)C2CCN(c3c(Cc4ccccc4)c(C)nc4ncnn34)CC2)cc1,,inactive: 1.3%
CCOC(=O)c1ccc(NC(=O)c2ccc3c(c2)C(=O)N(CC2CCCO2)C3=O)cc1 (centres undefined),,inactive: -4.93%

Compound,Potency,"activity, negative = less viability"
COCCN1C[C@@H](CO)O[C@@H](n2cnc3c(NCc4ccncc4)ncnc32)C1,,inactive: 24.4%
CCN(CC)S(=O)(=O)c1ccc(N/N=C/c2cc(OC)ccc2O)nc1,active: 8.2 µM,
Cc1ccc(NC(=S)Nc2cccc3cnccc23)cc1C,,inactive: -0.559%
COc1ccccc1Cc1c(-c2cccc(Cl)c2)nc2ccc(Cl)cn12,"inconclusive [cytotoxic, single point]",
O=C(Nc1nccs1)c1ccc(S(=O)(=O)c2ccccc2)cc1,"inconclusive [cytotoxic, single point]",
O=C(Oc1c(-c2ccco2)oc2ccccc2c1=O)c1cccnc1,"inconclusive [cytotoxic, single point]",
Cc1ccc(-c2nc3cccnc3s2)cc1NS(=O)(=O)c1ccc2c(c1)OCCO2,"inconclusive [cytotoxic, single point]",
Cc1cc(C)nc(-n2nc(C)cc2NC(=O)c2ccc(F)cc2F)n1,"inconclusive [cytotoxic, partial curve]",
Cc1cccc(NC(=O)c2cc(-c3ccc(C)s3)nc3ccccc23)n1,"inconclusive [cytotoxic, partial curve]",
N#Cc1c(-c2ccccc2)c(-c2ccccc2)n[nH]c1=O,"inconclusive [cytotoxic, single point]",
COc1cccc(-c2nn(-c3ccc(C)cc3)cc2C(=O)N(C)CC(=O)Nc2cccc(F)c2)c1,,inactive: -24.4%
Cc1[nH]c2ccccc2c1C(C[N+](=O)[O-])c1ccco1 (centres undefined),,inconclusive: -34% [cytotoxic]
Cn1c(N=NC(=O)c2ccccc2)c(O)c2ccccc21,,inactive: -22.7%
CC(=O)N1CCC(CCCC2CCN(C(C)=O)CC2)CC1,"inconclusive [rising, partial curve]",
CCSc1nnc2ccc(-c3ccc(C)cc3)nn12,,inactive: 14.2%
Nc1nc(N)c2nc(-c3ccccc3)c(N)nc2n1,active: 2.31 µM,
CC(C)C[C@H](NC(=O)c1nc[nH]c1C(=O)NCCCCCNC(=O)OC(C)(C)C)C(=O)OC(C)(C)C,"inconclusive [cytotoxic, single point]",
c1ccc2c(c1)nnn2Cc1nnc2sc(-c3ccncc3)nn12,,inactive: 8.84%
O=C(Nc1ccc(S(=O)(=O)N2CCOCC2)cc1)c1ccc(Cl)c([N+](=O)[O-])c1,"inconclusive [cytotoxic, single point]",
CC1CCN(S(=O)(=O)c2ccc3c(c2)C(=NO)c2cc(S(=O)(=O)N4CCC(C)CC4)ccc2-3)CC1,active: 1.46 µM,
COc1ccccc1OC(=O)c1ccc(SC)cc1OC,,inactive: -14%
C=CCNC(=O)c1onc(CCl)c1C(=O)OC,"inconclusive [cytotoxic, single point]",
O=C(NC1CCCCCC1)C1CCN(C(=O)c2ccc(Br)cc2)CC1,,inactive: -1.35%
